Source: a collection of fitness landscapes (doi:10.1038/s41467-024-54723-y)
Over roughly 18,000 sequences, “TetR repression strength (sort-seq, GFP reporter)” has its median near 0.23; the highest 2% begin near 0.68. The list shows a part of the results.

Biological target: TetR (class B, Tn10) (UniProt P04483)
Test: TetR repression strength (sort-seq, GFP reporter) (relative to tetO2 = 1); higher = stronger repression
Conditions: E. coli
Method in brief: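 Escherichia coli SIG10-MAX cells carried a low-copy plasmid library in which eight operator positions were randomized between a constitutive promoter and sfGFP, and TetR was expressed constitutively. After 5 h of growth at 37 °C in LB with 50 µg/mL chloramphenicol, 10^6 cells were FACS-sorted into 13 fluorescence bins, and each bin was Illumina-sequenced. Repression strength was the top bin index plus one minus the read-weighted mean bin, divided by the value for the unaltered operator. Across three independent transformations, only library members with ≥30 reads in every replicate and a CV ≤0.5 were averaged.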

Chain of UniProt P04483 (P04483 whole entry): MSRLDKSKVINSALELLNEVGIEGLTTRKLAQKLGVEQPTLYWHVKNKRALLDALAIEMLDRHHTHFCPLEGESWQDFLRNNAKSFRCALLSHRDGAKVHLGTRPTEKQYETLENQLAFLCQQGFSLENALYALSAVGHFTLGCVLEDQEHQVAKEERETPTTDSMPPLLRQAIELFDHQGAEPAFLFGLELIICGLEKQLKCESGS

Question: Which TetR repression strength does the source give for TCCCTAGCAGTGTGAGAGA here?
Answer: 0.276

Question: For TCCCGAGTAGTTCGTGAGA, which TetR repression strength is on record?
Answer: 0.0491

Question: TCCCGTCTAGTGGGCGAGA was tested. Which TetR repression strength did it give?
Answer: 0.259

Question: For TCCCCCTTAGTTCGTGAGA, which TetR repression strength is on record?
Answer: 0.318

Question: For TCCCGAAGAGTGGGGGAGA, which TetR repression strength is on record?
Answer: 0.118

Question: Which TetR repression strength does the source give for TCCCTGCGAGTTGGCGAGA here?
Answer: 0.191

Question: For TCCCGGGGAGTACCGGAGA, which TetR repression strength is on record?
Answer: 0.0858

Question: TCCCATGGAGTAACTGAGA was tested. Which TetR repression strength did it give?
Answer: 0.164

Question: Which TetR repression strength does the source give for TCCCAGACAGTGGTGGAGA here?
Answer: 0.284

Question: TCCCACTTAGTTTAGGAGA was tested. Which TetR repression strength did it give?
Answer: 0.227

Question: Which TetR repression strength does the source give for TCCCCAAGAGTGGAGGAGA here?
Answer: 0.0159

Question: For TCCCACGTAGTAGTGGAGA, which TetR repression strength is on record?
Answer: 0.0545

Question: How did the TetR repression strength turn out when TCCCATGGAGTAAACGAGA was run?
Answer: 0.441

Question: With TCCCCGGAAGTAGCAGAGA as the sequence, how does the TetR repression strength read?
Answer: 0.0779

Question: For TCCCGCTAAGTCCGAGAGA, which TetR repression strength is on record?
Answer: 0.232

Question: TCCCCCGGAGTGAGTGAGA was tested. Which TetR repression strength did it give?
Answer: 0.235

Question: Which TetR repression strength does the source give for TCCCTGAGAGTTGCAGAGA here?
Answer: 0.332

Question: Which TetR repression strength does the source give for TCCCAGCGAGTTCACGAGA here?
Answer: 0.0968

Question: TCCCTTTCAGTTTAAGAGA was tested. Which TetR repression strength did it give?
Answer: 0.398

Question: TCCCGTATAGTCTTTGAGA was tested. Which TetR repression strength did it give?
Answer: 0.0376

Question: How did the TetR repression strength turn out when TCCCCGCGAGTCTGCGAGA was run?
Answer: 0.207

Question: Which TetR repression strength does the source give for TCCCGGTGAGTGAGAGAGA here?
Answer: 0.484

Question: With TCCCGTAGAGTAGGGGAGA as the sequence, how does the TetR repression strength read?
Answer: 0.081

Question: TCCCGAGGAGTAAGTGAGA was tested. Which TetR repression strength did it give?
Answer: 0.204

Question: With TCCCTAGGAGTCGGTGAGA as the sequence, how does the TetR repression strength read?
Answer: 0.203

Question: How did the TetR repression strength turn out when TCCCCATAAGTACGGGAGA was run?
Answer: 0.084

Question: For TCCCTTAGAGTTGGTGAGA, which TetR repression strength is on record?
Answer: 0.266

Question: Which TetR repression strength does the source give for TCCCATGCAGTTCTAGAGA here?
Answer: 0.302

Question: For TCCCCACTAGTTTCTGAGA, which TetR repression strength is on record?
Answer: 0.485

Question: Which TetR repression strength does the source give for TCCCGGGTAGTTAGAGAGA here?
Answer: 0.113

Question: Which TetR repression strength does the source give for TCCCATGAAGTTGACGAGA here?
Answer: 0.186

Question: For TCCCGAGGAGTCAGTGAGA, which TetR repression strength is on record?
Answer: 0.247

Question: TCCCGTTTAGTAGTAGAGA was tested. Which TetR repression strength did it give?
Answer: 0.27

Question: Which TetR repression strength does the source give for TCCCGAACAGTGCATGAGA here?
Answer: 0.373

Question: Which TetR repression strength does the source give for TCCCTTCTAGTCTGTGAGA here?
Answer: 0.345

Question: For TCCCCTTTAGTCAGGGAGA, which TetR repression strength is on record?
Answer: 0.104

Question: How did the TetR repression strength turn out when TCCCGTTTAGTTGGTGAGA was run?
Answer: 0.139

Question: For TCCCACGGAGTCGCAGAGA, which TetR repression strength is on record?
Answer: 0.272

Question: Which TetR repression strength does the source give for TCCCCAACAGTGAGAGAGA here?
Answer: 0.344

Question: For TCCCCGGGAGTATGAGAGA, which TetR repression strength is on record?
Answer: 0.371

Question: Which TetR repression strength does the source give for TCCCATACAGTTCGAGAGA here?
Answer: 0.265

Question: For TCCCTTAAAGTACATGAGA, which TetR repression strength is on record?
Answer: 0.433

Question: Which TetR repression strength does the source give for TCCCCGTAAGTGAGGGAGA here?
Answer: 0.0939

Question: For TCCCTGAAAGTCTGCGAGA, which TetR repression strength is on record?
Answer: 0.134

Question: For TCCCATAGAGTTCCAGAGA, which TetR repression strength is on record?
Answer: 0.374

Question: For TCCCGAGTAGTGCCCGAGA, which TetR repression strength is on record?
Answer: 0.147

Question: TCCCTAATAGTGCTGGAGA was tested. Which TetR repression strength did it give?
Answer: 0.387

Question: For TCCCCTATAGTCCATGAGA, which TetR repression strength is on record?
Answer: 0.207

Question: With TCCCTGGAAGTGGGGGAGA as the sequence, how does the TetR repression strength read?
Answer: 0.208

Question: With TCCCTATTAGTTCGAGAGA as the sequence, how does the TetR repression strength read?
Answer: 0.135

Question: How did the TetR repression strength turn out when TCCCGGTAAGTAACAGAGA was run?
Answer: 0.145

Question: How did the TetR repression strength turn out when TCCCCGATAGTCGCCGAGA was run?
Answer: 0.184

Question: With TCCCGGTCAGTGTGTGAGA as the sequence, how does the TetR repression strength read?
Answer: 0.185

Question: For TCCCGGGTAGTGCAGGAGA, which TetR repression strength is on record?
Answer: 0.194

Question: How did the TetR repression strength turn out when TCCCTATGAGTGAGCGAGA was run?
Answer: 0.278

Question: With TCCCACTGAGTACATGAGA as the sequence, how does the TetR repression strength read?
Answer: 0.341

Question: TCCCAACGAGTCCTAGAGA was tested. Which TetR repression strength did it give?
Answer: 0.407

Question: TCCCTCAGAGTGTTAGAGA was tested. Which TetR repression strength did it give?
Answer: 0.248

Question: For TCCCAAACAGTACGGGAGA, which TetR repression strength is on record?
Answer: 0.12

Question: With TCCCGACAAGTGGGCGAGA as the sequence, how does the TetR repression strength read?
Answer: 0.152

Question: For TCCCGGTAAGTCCCCGAGA, which TetR repression strength is on record?
Answer: 0.153

Question: For TCCCGGTGAGTATAGGAGA, which TetR repression strength is on record?
Answer: 0.138

Question: Which TetR repression strength does the source give for TCCCCATCAGTTCCTGAGA here?
Answer: 0.721

Question: How did the TetR repression strength turn out when TCCCGAAAAGTGGTAGAGA was run?
Answer: 0.151

Question: For TCCCTGGGAGTTGATGAGA, which TetR repression strength is on record?
Answer: 0.227

Question: With TCCCTTTAAGTCGGCGAGA as the sequence, how does the TetR repression strength read?
Answer: 0.391

Question: With TCCCAGTGAGTTGGCGAGA as the sequence, how does the TetR repression strength read?
Answer: 0.296

Question: How did the TetR repression strength turn out when TCCCGTAGAGTGGATGAGA was run?
Answer: 0.147

Question: With TCCCAATCAGTAGATGAGA as the sequence, how does the TetR repression strength read?
Answer: 0.373

Question: For TCCCTACGAGTGGGCGAGA, which TetR repression strength is on record?
Answer: 0.164

Question: TCCCACAGAGTACCCGAGA was tested. Which TetR repression strength did it give?
Answer: 0.222

Question: For TCCCAATCAGTCAAAGAGA, which TetR repression strength is on record?
Answer: 0.676

Question: With TCCCAATTAGTCGCTGAGA as the sequence, how does the TetR repression strength read?
Answer: 0.203

Question: With TCCCCGACAGTTCGCGAGA as the sequence, how does the TetR repression strength read?
Answer: 0.222

Question: Which TetR repression strength does the source give for TCCCGGAAAGTGTACGAGA here?
Answer: 0.141

Question: For TCCCGTTGAGTTTGGGAGA, which TetR repression strength is on record?
Answer: 0.09

Question: Which TetR repression strength does the source give for TCCCGGCCAGTAGGAGAGA here?
Answer: 0.194

Question: Which TetR repression strength does the source give for TCCCAGATAGTATGCGAGA here?
Answer: 0.373

Question: Which TetR repression strength does the source give for TCCCATGTAGTTTTGGAGA here?
Answer: 0.361

Question: Which TetR repression strength does the source give for TCCCACGTAGTTTTAGAGA here?
Answer: 0.398

Question: Which TetR repression strength does the source give for TCCCCTGCAGTTGCCGAGA here?
Answer: 0.263

Question: With TCCCTAGTAGTCCCCGAGA as the sequence, how does the TetR repression strength read?
Answer: 0.147

Question: With TCCCTAGGAGTGCCGGAGA as the sequence, how does the TetR repression strength read?
Answer: 0.331

Question: With TCCCGCCAAGTCGTGGAGA as the sequence, how does the TetR repression strength read?
Answer: 0.13

Question: For TCCCGTATAGTTTAAGAGA, which TetR repression strength is on record?
Answer: 0.538

Question: With TCCCCATTAGTGATGGAGA as the sequence, how does the TetR repression strength read?
Answer: 0.153

Question: Which TetR repression strength does the source give for TCCCTACAAGTCCCGGAGA here?
Answer: 0.221

Question: How did the TetR repression strength turn out when TCCCGCTTAGTCGAGGAGA was run?
Answer: 0.162

Question: Which TetR repression strength does the source give for TCCCTTTGAGTGCTGGAGA here?
Answer: 0.251

Question: For TCCCCGAGAGTCCTAGAGA, which TetR repression strength is on record?
Answer: 0.235

Question: For TCCCGTATAGTGTGTGAGA, which TetR repression strength is on record?
Answer: 0.0308

Question: How did the TetR repression strength turn out when TCCCGTACAGTCTCGGAGA was run?
Answer: 0.254

Question: With TCCCAAGGAGTTGGGGAGA as the sequence, how does the TetR repression strength read?
Answer: 0.0765

Question: How did the TetR repression strength turn out when TCCCTTGAAGTGTGGGAGA was run?
Answer: 0.196

Question: With TCCCCATTAGTGTACGAGA as the sequence, how does the TetR repression strength read?
Answer: 0.425

Question: Which TetR repression strength does the source give for TCCCTTTGAGTCATGGAGA here?
Answer: 0.194

Question: With TCCCCGAAAGTAACAGAGA as the sequence, how does the TetR repression strength read?
Answer: 0.211

Question: Which TetR repression strength does the source give for TCCCAATGAGTTTGCGAGA here?
Answer: 0.21

Question: TCCCCGGTAGTACTCGAGA was tested. Which TetR repression strength did it give?
Answer: 0.199

Question: With TCCCTCTAAGTCTATGAGA as the sequence, how does the TetR repression strength read?
Answer: 0.285

Question: For TCCCAGGGAGTTCGGGAGA, which TetR repression strength is on record?
Answer: 0.289

Question: For TCCCTGCAAGTGGTGGAGA, which TetR repression strength is on record?
Answer: 0.426
